The text below walks through data of the RNAGym collection of RNA variant scans (doi:10.1073/pnas.2313332121).

Variants at the background level are over-represented here.

The labels stand for the following.
B1: TPR 5TU (parent)
chain: GGAUCUUCUCGAUCUAACAAAAAAGACAAAUCUGCCACAAAGCUUGAGAGCAUCUUCGGAUGCAGAGGCGGCAGCCUUCGGUGGCGCGAUAGCGCCAACGUUCUCAACUAUGACACGCAAAACGCGUGCUCCGUUGAAUGGAGUUUAUCAUG

The data set covers variants of B1. The experiment in a line: polymerase ribozyme fitness, log enrichment relative to wild type (log ratio); higher = more active; in vitro selection for triplet polymerase activity. The method, boiled down: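 Fitness is a logarithmic measure of how a genotype enriched relative to the wild type, with replicate averages weighted by inverse variance. The logarithm uses base 2, and enrichment came from Illumina sequencing of input and output libraries. Those libraries were PCR-built, transcribed mutants of each subunit of a heterodimeric triplet polymerase ribozyme, passed through one triplicate in vitro selection round that included frozen incubation at −7 °C, gel excision of extended constructs and streptavidin-bead capture. Genotypes were kept only if they had ≥10 input reads and ≥1 read per output.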
For C57A G58A G68U A119G G141U, the “polymerase ribozyme fitness (log ratio)” value is no more than -4.2.

Regarding U56G G141U, the “polymerase ribozyme fitness (log ratio)” value was 0.498.

Turning to U56A C105U C116G, the “polymerase ribozyme fitness (log ratio)” value is -0.192.

On to C57A C85A A107G, for which the “polymerase ribozyme fitness (log ratio)” value is no more than -4.2.

On to U56A G68U A89G G94C A107U G143A, for which the “polymerase ribozyme fitness (log ratio)” value was no more than -4.2.

With C57A A121U, the “polymerase ribozyme fitness (log ratio)” value is -0.0826.

As to C57U A97C G141C C149G, the “polymerase ribozyme fitness (log ratio)” value is no more than -4.2.

U56A G88U G128U A142C: the “polymerase ribozyme fitness (log ratio)” value is no more than -4.2.

U56G G84A A91G A115G: the “polymerase ribozyme fitness (log ratio)” value is -4.1.

Consider G58C A73U C93G U102C A147C, for which the “polymerase ribozyme fitness (log ratio)” value was no more than -4.2.

For C57G A107G, the “polymerase ribozyme fitness (log ratio)” value is no more than -4.2.

As to U56G C75G C93U, the “polymerase ribozyme fitness (log ratio)” value was -4.19.

With U56A G88A, the “polymerase ribozyme fitness (log ratio)” value is -3.78.

For C57G U101A, the “polymerase ribozyme fitness (log ratio)” value is 0.403.

As for G58C A60G G92A A121U, the “polymerase ribozyme fitness (log ratio)” value was -2.24.

Consider U56G A64C G65A G80C G83U A110C G136U G143U, for which the “polymerase ribozyme fitness (log ratio)” value is no more than -4.2.

For the variant U56A C123U, the “polymerase ribozyme fitness (log ratio)” value was 0.128.

With U56A C99G G140U, the “polymerase ribozyme fitness (log ratio)” value was -3.99.

U56A C96U A107C G117C U134G A137G G143U: the “polymerase ribozyme fitness (log ratio)” value is no more than -4.2.

As for C57U G67C G71A U82G C87G U104A U139G A142G, the “polymerase ribozyme fitness (log ratio)” value is no more than -4.2.

Consider C57U G84C C99U A122G C149U, for which the “polymerase ribozyme fitness (log ratio)” value was no more than -4.2.

Regarding C57U C75U C123G U144C, the “polymerase ribozyme fitness (log ratio)” value was -0.394.

For the variant C57G G58C C75G G83A, the “polymerase ribozyme fitness (log ratio)” value was no more than -4.2.

Turning to C57A A110U G141A, the “polymerase ribozyme fitness (log ratio)” value is no more than -4.2.

In the case of G58A G68U C75A C87G U104A G143A, the “polymerase ribozyme fitness (log ratio)” value is no more than -4.2.

Regarding C57A G83C C87U U134G U139A U144G, the “polymerase ribozyme fitness (log ratio)” value is no more than -4.2.

C57A C96A: the “polymerase ribozyme fitness (log ratio)” value is -0.383.

For the variant G58A C95U, the “polymerase ribozyme fitness (log ratio)” value was -0.535.

In the case of C57U G83U U139C G143A A147G, the “polymerase ribozyme fitness (log ratio)” value was no more than -4.2.

As for U56A C103G G140U, the “polymerase ribozyme fitness (log ratio)” value was no more than -4.2.

Consider U56G U151C, for which the “polymerase ribozyme fitness (log ratio)” value was no more than -4.2.

In the case of C57A G81U A91U C95G C105A A107U, the “polymerase ribozyme fitness (log ratio)” value was no more than -4.2.

In the case of G58A G80C G92C C99U A106G A147G, the “polymerase ribozyme fitness (log ratio)” value is no more than -4.2.

With U56G C72U, the “polymerase ribozyme fitness (log ratio)” value is -0.106.

For G58A A73G G88C A150U, the “polymerase ribozyme fitness (log ratio)” value was no more than -4.2.

On to U56C G74U C76U G84U C125G A138C, for which the “polymerase ribozyme fitness (log ratio)” value was no more than -4.2.

On to G58C A60G C85A G143U U146G, for which the “polymerase ribozyme fitness (log ratio)” value is no more than -4.2.

As for U56A G74U, the “polymerase ribozyme fitness (log ratio)” value is no more than -4.2.

Take U56A G84A A110U A119C A150C G152A: the “polymerase ribozyme fitness (log ratio)” value is no more than -4.2.

As for C57A A98G C123G U145G, the “polymerase ribozyme fitness (log ratio)” value was 0.398.

Regarding C57A U146A, the “polymerase ribozyme fitness (log ratio)” value is -0.0166.

For G58C C95U A150C, the “polymerase ribozyme fitness (log ratio)” value was -3.72.

Consider C57G C75U C96A C125U C149A, for which the “polymerase ribozyme fitness (log ratio)” value was no more than -4.2.

Regarding U56G U82G G88A A106G A110U, the “polymerase ribozyme fitness (log ratio)” value was no more than -4.2.

Consider C57G C85G C99G A115G, for which the “polymerase ribozyme fitness (log ratio)” value is no more than -4.2.

Take C57A C85A G94C G128A G136A A142U: the “polymerase ribozyme fitness (log ratio)” value was no more than -4.2.

As to U56A G58U C87U A91G A150G, the “polymerase ribozyme fitness (log ratio)” value was no more than -4.2.

With G58A A66G C87U A115C, the “polymerase ribozyme fitness (log ratio)” value was no more than -4.2.

Consider C57A C69U A91U C99A, for which the “polymerase ribozyme fitness (log ratio)” value is no more than -4.2.

For G58A U61G, the “polymerase ribozyme fitness (log ratio)” value is -1.49.

Consider U56A G86C U101A A142U, for which the “polymerase ribozyme fitness (log ratio)” value was no more than -4.2.

As to C57A G88U G92A G100A A106U C125U, the “polymerase ribozyme fitness (log ratio)” value was no more than -4.2.

As for C57U U78A G83A U102G, the “polymerase ribozyme fitness (log ratio)” value is no more than -4.2.

Turning to C57A G59C G83C A107U, the “polymerase ribozyme fitness (log ratio)” value was no more than -4.2.

As for U56A G65C C79U A110C A115G C118A, the “polymerase ribozyme fitness (log ratio)” value is no more than -4.2.

In the case of U56A G81A, the “polymerase ribozyme fitness (log ratio)” value is -0.577.

In the case of U56G C69A C85G C103G, the “polymerase ribozyme fitness (log ratio)” value is no more than -4.2.

With C57A U78C C95G C99G, the “polymerase ribozyme fitness (log ratio)” value was -3.07.

As for G58A U104A, the “polymerase ribozyme fitness (log ratio)” value came to 0.105.

In the case of C57U C76U A98G, the “polymerase ribozyme fitness (log ratio)” value was -0.421.

Take C57U C87G G88U C95G C116U C123A U134C: the “polymerase ribozyme fitness (log ratio)” value is no more than -4.2.

For the variant C57U A66G G88C A91U G126A, the “polymerase ribozyme fitness (log ratio)” value is no more than -4.2.

Consider G58C A106C, for which the “polymerase ribozyme fitness (log ratio)” value is 0.355.

For the variant C57A A60G C75G A91U G136A A137G U144G, the “polymerase ribozyme fitness (log ratio)” value was no more than -4.2.

As for G58C A73U G92U G133C G141A, the “polymerase ribozyme fitness (log ratio)” value was no more than -4.2.

With U56A C85A C93A C96G C103A G124U, the “polymerase ribozyme fitness (log ratio)” value was no more than -4.2.

In the case of G58A G59A C108A C132U, the “polymerase ribozyme fitness (log ratio)” value is no more than -4.2.

For U56G U148G, the “polymerase ribozyme fitness (log ratio)” value is -3.89.

U56G U77C U102C U127A: the “polymerase ribozyme fitness (log ratio)” value is no more than -4.2.

With U56C U102A G136C A150G, the “polymerase ribozyme fitness (log ratio)” value was no more than -4.2.

As for C57A G71A C93A C118U G140U C149U, the “polymerase ribozyme fitness (log ratio)” value was no more than -4.2.

Take G58A C79A C85U A147C: the “polymerase ribozyme fitness (log ratio)” value is no more than -4.2.

Regarding C57G C79U U139A, the “polymerase ribozyme fitness (log ratio)” value was no more than -4.2.

G58A G67C G141A: the “polymerase ribozyme fitness (log ratio)” value is no more than -4.2.

In the case of C57U U102G, the “polymerase ribozyme fitness (log ratio)” value was -1.87.

In the case of C57G G84A, the “polymerase ribozyme fitness (log ratio)” value is -0.518.

As for C57G G84U, the “polymerase ribozyme fitness (log ratio)” value is -1.79.

Take U56A G58A C103A C125A: the “polymerase ribozyme fitness (log ratio)” value was -0.231.

Regarding G58A C87A A91C C99U, the “polymerase ribozyme fitness (log ratio)” value was no more than -4.2.

Take U56A U78A C79A: the “polymerase ribozyme fitness (log ratio)” value is no more than -4.2.

Take C57G C75G G94A A150C G152A: the “polymerase ribozyme fitness (log ratio)” value was no more than -4.2.

In the case of G58A C87G A142C, the “polymerase ribozyme fitness (log ratio)” value was no more than -4.2.

As to U56G G58C U61A, the “polymerase ribozyme fitness (log ratio)” value is -2.98.

Take C57U A91U: the “polymerase ribozyme fitness (log ratio)” value was -3.95.
